This passage reports binding signal (log2 normalized intensity) results from article PMC10726135.

The list shows a part of the results. At the low end of the ranking the order means little. The protein was read in a cell extract, so binding may be indirect.

The target of the test is T1, HNF4alpha2 (COS-7 nuclear extract) (UniProt P41235).
T1 sequence: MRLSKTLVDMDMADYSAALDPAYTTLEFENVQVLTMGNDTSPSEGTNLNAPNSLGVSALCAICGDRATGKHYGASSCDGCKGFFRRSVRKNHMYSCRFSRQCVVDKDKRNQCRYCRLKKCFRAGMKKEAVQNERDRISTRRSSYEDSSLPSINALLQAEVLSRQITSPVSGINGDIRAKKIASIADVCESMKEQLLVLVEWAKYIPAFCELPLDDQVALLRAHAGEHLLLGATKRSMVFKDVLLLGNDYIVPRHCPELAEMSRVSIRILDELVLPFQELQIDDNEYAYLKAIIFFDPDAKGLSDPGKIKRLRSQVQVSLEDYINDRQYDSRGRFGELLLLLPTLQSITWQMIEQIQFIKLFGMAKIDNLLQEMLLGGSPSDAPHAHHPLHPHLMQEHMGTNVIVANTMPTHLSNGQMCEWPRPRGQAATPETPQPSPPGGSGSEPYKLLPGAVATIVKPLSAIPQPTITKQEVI
In words: protein-binding microarray. Particulars: COS-7 nuclear extract on double-stranded Agilent 4x180k PBM; binding buffer, salt, pH and temperature not given; high values mean tight binding; double strand, one strand shown; sequences stand for … in …GCCTAGGGAGATTAGAGTATCGGTCGA
As for TGACACACACCTCCAGCCACCCTGAAGGCT, the binding signal (log2 normalized intensity) is -1.15.

On to CCCCTCTGACCTCTCCTCCTACCTTCTCCC, for which the binding signal (log2 normalized intensity) was determined as 2.71. Take TCTTTGCCCTCTTGGTATCAGCTTTGAGAC: the binding signal (log2 normalized intensity) came out at 1.42. For the sequence CAAACATTTATTTTGTGTGCTAGATACTGG, the binding signal (log2 normalized intensity) came out at 1.3. As for GTCAGGAACAAAGGTCACAGCACTGTTTAT, the binding signal (log2 normalized intensity) came out at 3.63. Turning to TAATTAACTCCCCCTGCCCCCAGGTAGAGA, the binding signal (log2 normalized intensity) worked out at 5.67. On to CCTTTCCCCGCCCCGCGTCCGTGCACCCTT, for which the binding signal (log2 normalized intensity) was 4.42. For GCCTTGCTGAGGAATTTGGACTTCAGCCCA, the binding signal (log2 normalized intensity) worked out at 6.11. For GCATCAACTCTATCATACTCAGCTAATCTA, the binding signal (log2 normalized intensity) was -1.08.

With ACAGCTGACAAGCAGAACCCAGGGTCACAA, the binding signal (log2 normalized intensity) is -1.15. On to AGGTGTAACCTGCTCTCTCATGCCCTTTGC, for which the binding signal (log2 normalized intensity) worked out at 4.31. Regarding GTTCAGAGGGCATGTTGAGTGGAATATGAG, the binding signal (log2 normalized intensity) was found to be 1.45. The same measure for TCCCTCCCCCATTAGAGGCACACTCTATTA: 3.27; for CGAGAGAGACCTGTTCTGTTCCCTGGACTC: 2.88. Regarding TTTGTTCACTTGTTTATCTGCTGCCCTTCC, the binding signal (log2 normalized intensity) was 2.78. The same measure for GAACTCTTCATGGACTCCTCTTATCTTCAG: 1.04; for CTAGAAAGAATGAGAAGGGCTAATATTTGC: -0.992.

Regarding ACTGCCATTGATAATTCAGTTTCATTGCAC, the binding signal (log2 normalized intensity) was determined as 0.91. With TCAGGTTCCCCAGTGAGGATGTGTGCTCGA, the binding signal (log2 normalized intensity) turned out to be 1.59. The same measure for AGACAGAAAACAAACATTAGCTGCAGATTC: -1.01; for GCTTGACCCATTATGGCCACTGTGTGTGTG: 2.14; for ATGGGACATTGCATTCCACCCTGGCAGAGG: -1.13. Regarding GTACACAGGAATATCAACAGGAGCAAATAT, the binding signal (log2 normalized intensity) is -1.09. On to ACTGATTCTCAGGCATCTCTGGGGGTCAGA, for which the binding signal (log2 normalized intensity) was 2.8. As to ATATTCAGACGCATGACCTCAACTCTCAGT, the binding signal (log2 normalized intensity) was -0.151. With TCATTTTGATCTTTGTGTACAAAGCCATCA, the binding signal (log2 normalized intensity) came to 1.2.

Regarding ACGCCCTGCACCCTACGTAAATGCACGGAA, the binding signal (log2 normalized intensity) is -0.956.

For AAATTATTACTCCCACCGTGTGTGCACTTT, the binding signal (log2 normalized intensity) was found to be 3.33. For ATTCCTATCGCCCTTCTGTCAAGTCCAAAG, the binding signal (log2 normalized intensity) is -0.648. For the sequence TTGCTCAACCCAAAGCATGTCCAGAATCCT, the binding signal (log2 normalized intensity) worked out at 0.853. For GGCCCTGCAGACTTTGCCTCAGTAAATGCA, the binding signal (log2 normalized intensity) is -0.96. With TGGGAACCGACCTTTGGTTCCTGAACTCAA, the binding signal (log2 normalized intensity) worked out at 4.29. For the sequence AAGGCATGGGACCTTTGCCCTTCTTGTTAA, the binding signal (log2 normalized intensity) was found to be 4.4.

For the sequence GTTACGAGTGGGAGTTAGGGAAAAGATAAG, the binding signal (log2 normalized intensity) is -1.13.

ACACTTTCTGACCTTTAAGCACCCAGAGCC: the binding signal (log2 normalized intensity) is 2.1. As to TAAAGGTCAAAACCACCTATTCTGAAGATT, the binding signal (log2 normalized intensity) is -1.01. In the case of TTCCAGGCTTGTACCTTGACCTTCTCTGTT, the binding signal (log2 normalized intensity) was 5.58.

For the sequence AGATGTGAACACTGAGGCTCAATGAGGTCA, the binding signal (log2 normalized intensity) was 1.54. In the case of GAGGAGAGTACTGTCTCTTATCAGCCATCT, the binding signal (log2 normalized intensity) was -1.15. With CAAGAGAGGTCACAACAGAAAGCAAGAGCA, the binding signal (log2 normalized intensity) was -1.05. As for CCCGGGCACAGGGTTGAGTGGTGACTGAAG, the figure is -1.06. For GTCCCAGGGCAAAGGTCACCAGCTAAGCTG, the binding signal (log2 normalized intensity) is 5.83. The same measure for ACCTCTGGTCATTCAATGTTTGGGAGCCTT: 1.45; for TGTCGGTATAAGTTCTACATTCCCAAGGTT: 0.442; for CTTCCTTTATTCACTTCTCAAAGGACAGAT: 2.17. AGGAGATATGCACTTGCCCTTTGGTAATCC: the binding signal (log2 normalized intensity) worked out at 3.23. The same measure for GACTCTGTCCTGGGCACTGTCCTAGGTGCT: -1. On to TATTCTTTAACCAGAGTCTACAGGTCAGAC, for which the binding signal (log2 normalized intensity) is 1.29. For the sequence TGCCACAGGTATTTCTGTTGTTGATTTAAC, the binding signal (log2 normalized intensity) was 1.19.

Consider TATCTCAACTGATTTACCTCTGACCACTCT, for which the binding signal (log2 normalized intensity) was found to be 0.588. Regarding CTCCCCCACGACAGAATTGACTCTTCGTTT, the binding signal (log2 normalized intensity) amounted to 2.49. With TCTTGTAGGTTTTTTTTTTTTTTAACGGTC, the binding signal (log2 normalized intensity) is 2.91.

Turning to CTCCAGGAGCAATCATCGCACCTAAGGGCA, the binding signal (log2 normalized intensity) is -1.18.

As for TTGTACTGCTTCCAAAACATTGTAGAATTA, the binding signal (log2 normalized intensity) was 0.955. On to CCGACTCCTGGGTGTGAGATAAGGCCGCTG, for which the binding signal (log2 normalized intensity) is -1.1. In the case of GTGTCATTGTTATTTACGGTGGGCACCTCA, the binding signal (log2 normalized intensity) was 0.318. Consider CCGGTTTGTTCCATGCCACAGAATCGCCCC, for which the binding signal (log2 normalized intensity) is 2.6. Take GGAACCAAGAGCAGATTTGTTTGCTCTTTA: the binding signal (log2 normalized intensity) worked out at 0.323. As for GGTTCTCTCTTCTTCCCCTCCTTCAGGTCA, the binding signal (log2 normalized intensity) came out at 2.72. On to AATGACCCTTGCTTGACCCATTATGGCCAC, for which the binding signal (log2 normalized intensity) was 1.15. TCCGGGTATGTTCTTAAGATAAGGACTGTT: the binding signal (log2 normalized intensity) is 1.44.

As to CAAGGTCCCATGCACTGGCCTGGATTTAAA, the binding signal (log2 normalized intensity) is -1.01. As for TCCCAGGATAATGGAGAAGATAAGCAGATC, the binding signal (log2 normalized intensity) was -1.21. As for GACCAGCTTTTGGAAGGACTTCGAATGGTA, the binding signal (log2 normalized intensity) worked out at 1.06. As to AGCTGACCCCAAAACCCCCAAAGGTGAGTA, the binding signal (log2 normalized intensity) was 3.97. For the sequence AATGGTGTAGAGGCCAGAGGTCGTGTCTCC, the binding signal (log2 normalized intensity) came out at 1.6. Take TTATCCTTGGGACATTCTCACATTAAAAGA: the binding signal (log2 normalized intensity) was 1.6.

As for GGAACATCAGACACAGAGATAAGGAGGTAA, the binding signal (log2 normalized intensity) was -0.87. Consider GCAGAGATTCCTGCTGAGTTATCTCTTGAC, for which the binding signal (log2 normalized intensity) is -0.763. As for CGTTCCTGACAGACTGCCATTCCAGAAGTA, the binding signal (log2 normalized intensity) was -1.18. Regarding GCCATCTGCTGCCTCAGTTTCCCCGTCTCT, the binding signal (log2 normalized intensity) is 1.65. Take TTCCCACCCCATTTCACAGCAACCTCAGAC: the binding signal (log2 normalized intensity) worked out at 2.21.
